Article PMC4336329 (PLoS ONE, 2015)
In all, about 310,000 compounds went through this assay and about 14,000 (4.5%) showed an effect of 50% or more. The effect is printed as a negative number. Some of the results follow.

Molecular target: human ether-à-go-go-related gene (hERG) potassium channel (human, UniProt Q12809)
Experiment: primary screen, population patch clamp on CHO cells stably expressing hERG
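Note: peak tail current of the secondary pulse compared with the same well before compound.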

Sequence of human ether-à-go-go-related gene (hERG) potassium channel (Q12809 whole entry, looked up): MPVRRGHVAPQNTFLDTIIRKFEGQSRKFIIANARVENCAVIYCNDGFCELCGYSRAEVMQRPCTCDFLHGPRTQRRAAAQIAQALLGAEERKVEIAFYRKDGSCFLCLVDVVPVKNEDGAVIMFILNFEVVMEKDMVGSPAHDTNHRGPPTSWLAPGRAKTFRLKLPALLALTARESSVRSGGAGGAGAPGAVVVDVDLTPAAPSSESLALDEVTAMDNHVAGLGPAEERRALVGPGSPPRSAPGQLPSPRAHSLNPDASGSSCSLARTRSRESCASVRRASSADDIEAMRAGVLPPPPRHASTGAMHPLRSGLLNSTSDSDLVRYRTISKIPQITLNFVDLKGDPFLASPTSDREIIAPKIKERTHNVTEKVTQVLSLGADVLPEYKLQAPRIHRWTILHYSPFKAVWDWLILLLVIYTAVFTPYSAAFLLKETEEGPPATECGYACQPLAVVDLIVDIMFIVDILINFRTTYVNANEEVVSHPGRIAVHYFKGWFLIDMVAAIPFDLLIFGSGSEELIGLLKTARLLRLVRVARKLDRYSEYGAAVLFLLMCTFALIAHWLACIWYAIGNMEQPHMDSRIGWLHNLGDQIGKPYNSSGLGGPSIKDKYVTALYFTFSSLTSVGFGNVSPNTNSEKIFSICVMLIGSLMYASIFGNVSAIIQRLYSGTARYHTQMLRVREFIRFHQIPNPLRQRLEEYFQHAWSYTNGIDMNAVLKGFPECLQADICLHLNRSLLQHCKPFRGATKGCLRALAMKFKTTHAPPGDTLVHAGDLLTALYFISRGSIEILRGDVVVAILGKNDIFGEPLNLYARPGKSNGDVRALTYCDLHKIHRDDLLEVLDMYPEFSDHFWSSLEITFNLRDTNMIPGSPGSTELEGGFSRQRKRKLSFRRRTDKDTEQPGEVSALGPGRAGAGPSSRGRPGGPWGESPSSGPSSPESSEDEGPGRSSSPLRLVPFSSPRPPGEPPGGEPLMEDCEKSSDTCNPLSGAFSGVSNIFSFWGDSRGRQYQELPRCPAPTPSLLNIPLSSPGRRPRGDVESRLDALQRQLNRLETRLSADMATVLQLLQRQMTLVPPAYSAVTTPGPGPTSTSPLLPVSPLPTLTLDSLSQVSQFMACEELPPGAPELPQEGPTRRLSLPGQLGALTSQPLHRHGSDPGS

First: CCC(=O)Nc1ccc(SC#N)cc1C
Second: Cc1cc(NC(=O)CSc2nc3ccccc3s2)no1
The “hERG current change (%, negative = inhibition) at 10uM” value of the first is lower: 12.9% for the first, 13.2% for the second.

Compared with `O=C(O)CCC(=O)Nc1sc2c(c1C(=O)Nc1cccc3ccccc13)CCCCC2`, `C=CCOC(=O)CCC(=O)Nc1cccc2ccccc12` is lower in “hERG current change (%, negative = inhibition) at 10uM” value: 8.26% for the first, -7.64% for the second.

First: Cc1cc(=O)[nH]c(N/N=C/c2c(F)c(F)c(F)c(F)c2F)n1
Second: O=C(Nc1ccc(F)cc1F)c1csc(-c2cccs2)n1
The “hERG current change (%, negative = inhibition) at 10uM” value of the first is lower: -2.37% for the first, 27.4% for the second.

Going from `Cc1nc(C)n(CC(=O)N2CCCC(C(=O)c3cccc4ccccc34)C2)n1` (stereo not shown) to `O=C(Cc1cccs1)N1CCCC(c2nc3c(nnn3Cc3ccccc3Cl)c(=O)[nH]2)C1` (stereo not shown), the “hERG current change (%, negative = inhibition) at 10uM” value falls from 6.92% to -29.6%.

Compared with `CCOc1ccc(CN(CC)C(=O)c2ccc3c(c2)[nH]c(=O)c(=O)n3CC)cc1OC`, `CCOc1ccc(CCNC(=O)COC(=O)c2c(OC)cccc2OC)cc1OCC` is lower in “hERG current change (%, negative = inhibition) at 10uM” value: -4.7% for the first, -8.62% for the second.

Compared with `CC(C)(O)C(=O)NNC(=S)Nc1ccc(F)c(Cl)c1`, `CC(=O)c1ccc(NC(=S)NCc2cccnc2)cc1` is lower in “hERG current change (%, negative = inhibition) at 10uM” value: 30.1% for the first, -1.93% for the second.

Compared with `COc1ccc(-c2cn3cc(C)ccc3n2)cc1F`, `Cc1ccc(-c2nc3ccc(Cl)cc3n2OC(C)C(=O)O)cc1` (stereo not shown) is higher in “hERG current change (%, negative = inhibition) at 10uM” value: 11.3% for the first, 12.1% for the second.

Compared with `CSc1cccc(NC(=O)CCCOc2ccc(Cl)cc2Cl)c1`, `C#CCN(C)CCCOc1ccc(Cl)cc1Cl.Cl` is lower in “hERG current change (%, negative = inhibition) at 10uM” value: 16.4% for the first, -21% for the second.

Going from `Cc1cccc(CN(CC(=O)N/N=C/c2ccco2)S(=O)(=O)c2ccc(Cl)cc2)c1` to `CCN(CC)S(=O)(=O)c1cccc(C(=O)OCC(=O)NC(C)c2ccccc2)c1` (stereo not shown), the “hERG current change (%, negative = inhibition) at 10uM” value falls from -5.48% to -21.7%.

Compared with `COc1cccc(C(=O)NCC2CCCN2S(=O)(=O)c2ccccc2)c1` (stereo not shown), `O=C(NCc1ccc(F)cc1)C(=O)NCC1CCCN1S(=O)(=O)c1ccccc1` (stereo not shown) is lower in “hERG current change (%, negative = inhibition) at 10uM” value: 2.72% for the first, -38.2% for the second.

Going from `O=C(C[n+]1ccn(-c2ccccc2)c1)c1ccc([N+](=O)[O-])cc1.[Br-]` to `O=[N+]([O-])c1ccc(Oc2ccc(/C=N/O)cc2)nc1`, the “hERG current change (%, negative = inhibition) at 10uM” value rises from -61.3% to 0.3%.

First: COc1cccc(S(=O)(=O)Nc2ccc(C(=O)N3CCOCC3)cc2)c1
Second: Cc1ccc(C(=O)Nc2ccc(N3CCOCC3)cc2)cc1
The “hERG current change (%, negative = inhibition) at 10uM” value of the first is lower: -4.12% for the first, 7.36% for the second.

First: Cc1ccc(C(=O)NNC(=O)c2cc(C)nc3ccccc23)cc1
Second: CC(C)C(=O)N(Cc1ccc(F)cc1)Cc1nc2ccccc2c(=O)[nH]1
The “hERG current change (%, negative = inhibition) at 10uM” value of the first is higher: -6.48% for the first, -30.4% for the second.

First: CC(=O)C1=NOC2C(=O)N(c3ccccc3)C(=O)C12 (stereo not shown)
Second: O=C(O)c1cc(=O)c2ccccc2[nH]1
The “hERG current change (%, negative = inhibition) at 10uM” value of the first is higher: 13.2% for the first, 8.86% for the second.

Compared with `N#Cc1ccc(CSc2nnc(-c3cccnc3)o2)cc1`, `O=C(CSc1nnnn1-c1cccnc1)Nc1ccc(OCc2ccccc2)cc1` is higher in “hERG current change (%, negative = inhibition) at 10uM” value: -26.8% for the first, -7.38% for the second.

First: COc1ccc(NC(=O)CSc2nc(C3CC3)nc3ccccc23)c(OC)c1
Second: COc1ccc(Cl)cc1NC(=O)CSc1nnc(C2CC2)n1C
The “hERG current change (%, negative = inhibition) at 10uM” value of the first is higher: 4.94% for the first, -2.44% for the second.

First: Cc1ccc2sc(N3CCN(CCNC(=O)c4ccco4)CC3)nc2c1C.Cl
Second: Cc1cccc(C)c1-n1c(SCC(=O)NCc2ccco2)nc2ccccc2c1=O
The “hERG current change (%, negative = inhibition) at 10uM” value of the first is lower: -58.2% for the first, -28.7% for the second.

Compared with `COc1ccc(C(C)(C)C)cc1NC(=O)COC(=O)c1ncc(Cl)c(Cl)c1Cl`, `CCNC(=O)COC(=O)Cc1ccc(Cl)cc1Cl` is higher in “hERG current change (%, negative = inhibition) at 10uM” value: 10.2% for the first, 10.6% for the second.

Compared with `COc1cc(NC(=O)CN2C(=O)NC(C)(CCC(C)C)C2=O)cc(OC)c1` (stereo not shown), `O=C(CSCc1ccccc1)Nc1ccc2c(c1)C(=O)NC2=O` is higher in “hERG current change (%, negative = inhibition) at 10uM” value: -0.743% for the first, 0.0605% for the second.

First: CCCCCCn1c(O)c(/C=C2\C=NN=C2c2ccccc2)sc1=S
Second: CCOC(=O)C1=C(c2ccccc2)OC(N)=C(C#N)C1c1ccc(Cl)s1 (stereo not shown)
The “hERG current change (%, negative = inhibition) at 10uM” value of the first is lower: 2.67% for the first, 3.47% for the second.

Compared with `C(/C=C/c1ccccn1)=C\c1ccccc1`, `COc1ccccc1OCCSc1nnc(C)n1-c1ccccc1` is lower in “hERG current change (%, negative = inhibition) at 10uM” value: -5% for the first, -10.5% for the second.

Compared with `O=C(CNC(=O)C1(c2ccccc2)CC1)Nc1ccc(F)c(F)c1`, `COc1ccc(CNC(=O)CCC(=O)n2ncc3cc(C)ccc32)cc1` is lower in “hERG current change (%, negative = inhibition) at 10uM” value: 11.3% for the first, -1.26% for the second.

Compared with `CC1CCN(C(=O)CSc2nnc(-c3ccncc3)n2C)CC1`, `CCCCSc1nnc(-c2ccc(NC(C)=O)cc2)n1C` is lower in “hERG current change (%, negative = inhibition) at 10uM” value: 6.41% for the first, 0.665% for the second.

Going from `CCOc1ccc(NC(=O)COC(=O)c2ccc3c(c2)C(=O)N(CCc2ccccc2)C3=O)cc1` to `COc1ccccc1Oc1ccc(NC(=O)c2ccccc2)cc1`, the “hERG current change (%, negative = inhibition) at 10uM” value falls from 9.69% to -23.1%.

First: CN1C(=O)CC(N2CCN(CCN=CC3=C(O)CC(C)(C)CC3=O)CC2)C1=O (stereo not shown)
Second: CN1CCN(c2ccc(S(=O)(=O)N3CCOCC3)cc2NC(=O)Cc2ccccc2F)CC1
The “hERG current change (%, negative = inhibition) at 10uM” value of the first is higher: 13.1% for the first, -26.4% for the second.

First: COc1ccc(C(=O)Nc2ccccc2C(=O)NC(Cc2ccc(O)cc2)C(=O)NNC(=O)c2ccccc2)cc1 (stereo not shown)
Second: CCc1ccc(N2CC(C(=O)OCc3csc(CC(=O)Nc4ccccc4C)n3)CC2=O)cc1 (stereo not shown)
The “hERG current change (%, negative = inhibition) at 10uM” value of the first is lower: 9.95% for the first, 10.6% for the second.

Compared with `CCC(=NC1CC1)c1c(O)n(-c2ccc(OC)cc2)c(=O)[nH]c1=O`, `COc1ccc(-n2ccnc2SCC(=O)Nc2cc(C)on2)cc1` is lower in “hERG current change (%, negative = inhibition) at 10uM” value: 18.6% for the first, 6.74% for the second.

Going from `COc1ccc2c(c1)c(=O)c(C(=O)O)c(-c1ccc3c(c1)OCO3)n2C` to `COc1cc(CNCCc2ccc3c(c2)OCO3)cc(OC)c1OC.O=C(O)C(=O)O`, the “hERG current change (%, negative = inhibition) at 10uM” value rises from -27.4% to -14.2%.

Compared with `Br.CCCCC(CCC(=O)O)(C(=O)OCC)c1csc(Nc2ccc(OCC)cc2)n1` (stereo not shown), `CCOc1ccc(-c2cc(C)n3nc(C(N)=O)cc3n2)cc1` is lower in “hERG current change (%, negative = inhibition) at 10uM” value: 6.54% for the first, -11.1% for the second.

Going from `CN(C)C(=O)c1cn(-c2ccc(Cl)cc2)c(=O)c2ccccc12` to `CC(=O)c1cccc(OCC(O)CNCCc2ccc(Cl)cc2)c1` (stereo not shown), the “hERG current change (%, negative = inhibition) at 10uM” value falls from -10.9% to -49%.

Compared with `COc1ccc(C2C(C(C)=O)=C(C)Nc3ncnn32)cc1` (stereo not shown), `CC1=C(C(=O)OCc2ccccc2)C(c2cccnc2)n2ncnc2N1` (stereo not shown) is lower in “hERG current change (%, negative = inhibition) at 10uM” value: 18.4% for the first, 9% for the second.

Compared with `Cc1cc(C)cc(Oc2nc(C(F)(F)F)nc3ccccc23)c1`, `Cc1cc(C)nc(Sc2nc(C)nc3c2oc2ccccc23)n1` is lower in “hERG current change (%, negative = inhibition) at 10uM” value: 17.6% for the first, -1.57% for the second.

Going from `CCOc1ccc(CC(=O)N2CCN(c3ccc(N4CCOCC4)nn3)CC2)cc1OCC` to `Cc1cc([N+](=O)[O-])nn1CCCC(=O)N1CCN(c2ccccc2)CC1`, the “hERG current change (%, negative = inhibition) at 10uM” value falls from 8.69% to -21.4%.

Going from `Cc1cc(NC(=O)C2=C(O)c3ccccc3S(=O)(=O)N2C)no1` to `C=C1CCN([C@@H](CC(C)C)C(=O)NN2CCOCC2)S(=O)(=O)c2ccccc21`, the “hERG current change (%, negative = inhibition) at 10uM” value rises from 6.5% to 9.45%.

Compared with `COc1ccc(/C=N/OC/C(O)=C(\C#N)c2nc3ccccc3[nH]2)cc1`, `COCCOC(=O)c1c(C)oc2ccc(OCc3ccccc3)cc12` is higher in “hERG current change (%, negative = inhibition) at 10uM” value: -15.4% for the first, -5.55% for the second.

Compared with `COc1ccccc1C1C2=C(CCCC2=O)N(CC(=O)O)C2=C1C(=O)CCC2`, `COc1ccccc1CC(=O)NC1CC1` is lower in “hERG current change (%, negative = inhibition) at 10uM” value: 15.9% for the first, 13.6% for the second.

First: CCOC(=O)c1c(C)oc2ccc(NS(=O)(=O)c3cccs3)cc12
Second: CCOC(=O)CC1C(=O)NCCN1S(=O)(=O)c1ccc(C)cc1 (stereo not shown)
The “hERG current change (%, negative = inhibition) at 10uM” value of the first is lower: 6.47% for the first, 14.2% for the second.

Compared with `Cc1cc2c(ncn2Cc2ccccc2)c(N)c1C`, `CCn1c(C(=O)NCc2ccccn2)cc2sccc21` is lower in “hERG current change (%, negative = inhibition) at 10uM” value: 5.6% for the first, 0.0676% for the second.

Compared with `CC(=O)n1c(Cl)c(NC(=O)CCl)c2ccccc21`, `CCOC(=O)Cc1nnc(NC(=O)c2ccccc2OC)s1` is higher in “hERG current change (%, negative = inhibition) at 10uM” value: -8.24% for the first, -4.76% for the second.

Compared with `COc1ccc(N2C(=O)CCC(C(=O)Nc3ccccn3)C2c2ccc(OC)c(OC)c2)cc1` (stereo not shown), `COc1ccc(CNC(=O)C2CC(=O)N(c3ccc(OCC(=O)N4C(C)CCCC4C)cc3)C2)cc1` (stereo not shown) is lower in “hERG current change (%, negative = inhibition) at 10uM” value: 8.15% for the first, -29.4% for the second.

First: COC(=O)C1=C(c2ccc(F)cc2OCc2ccccc2)C[C@@H]2CC[C@H]1N2C(=O)N1CCC(C)CC1
Second: COc1ccc(NC(=S)N2CCN(Cc3cccc(F)c3)CC2)c(OC)c1
The “hERG current change (%, negative = inhibition) at 10uM” value of the first is higher: -3.4% for the first, -6.36% for the second.

First: CN(C)CCn1c2c(c(SCC(=O)Nc3ccc4c(c3)OCCO4)nc1=O)CCCC2
Second: Cc1ccc(CS(=O)Cc2ccc(C(=O)NC3CCCCC3)o2)cc1 (stereo not shown)
The “hERG current change (%, negative = inhibition) at 10uM” value of the first is lower: -14.8% for the first, 2.31% for the second.

First: COc1ccc(/C=C2\SC(=S)N(CC(=O)NC3CCS(=O)(=O)C3)C2=O)cc1 (stereo not shown)
Second: O=C(COC(=O)c1ccccc1SCC(=O)N1CCCC1)NC1CCCCC1
The “hERG current change (%, negative = inhibition) at 10uM” value of the first is higher: 11.9% for the first, -5.12% for the second.

First: C/C(CC(=O)NCC(C)C)=N\NC(=O)COc1cc(C)c(Br)cc1Br
Second: O=C(COC(=O)[C@@H]1CC(O)CN1S(=O)(=O)c1ccc([N+](=O)[O-])cc1)NC12CC3CC(CC(C3)C1)C2 (stereo partly shown)
The “hERG current change (%, negative = inhibition) at 10uM” value of the first is higher: -31.6% for the first, -35.2% for the second.
